Data: ChEMBL document CHEMBL4888484, “Replenishing the malaria drug discovery pipeline: Screening and hit evaluation of the MMV Hit Generation Library 1 (HGL1) against asexual blood stage Plasmodium falciparum ,using a nano luciferase reporter read-out” (2022)
Among all 150,000 compounds or so, about 540 (0.36%) showed an effect of 50% or more. This is one part of the list.

Each compound was assayed on Plasmodium falciparum (assay: Primary screen in NF54 nanoGlo assay, in single point, at 2uM, 72h; a lower Z score goes with more inhibition). Details: timepoint 72 hour.
Type: functional, Erythrocyte
With O=C(c1ccc2c(c1)OCO2)N1C[C@@H]2CC[C@H]1CN(Cc1ccccn1)C2 the “% Inhibition” value was -21% and the Z score was 2.12. C[C@@H](c1ccc(-c2cc(C#N)n(C)c2)cc1)N(C)C was tested, and the “% Inhibition” value was -9% and the Z score was 1.53. For NC1CC(c2cc(NCc3cccnc3)nc(C3CC3)n2)C1 (stereo unspecified), the “% Inhibition” value was 15% and the Z score was -2.04. CC(C)c1nnc(NC(=O)c2ccc(=O)n(C)c2)s1 was tested, and the “% Inhibition” value was -1% and the Z score was 0.08. With C1CC(c2nnc(NC[C@H]3CCCO3)o2)C1 the “% Inhibition” value was 8% and the Z score was -1.09. For C[C@H](NC(=O)Cn1c(=O)ccn(C2CC2)c1=O)C(=O)N1CCCCC1, the “% Inhibition” value was -10% and the Z score was 1.35. In the case of Cc1ccc(C)c(N(C)C(=O)Cc2ccc(C)nc2)c1, the “% Inhibition” value is reported as 21% and the Z score is reported as -2.7. With CCCOc1ccc(Nc2cc(C)nc3ccc(Cl)cc23)cc1 the “% Inhibition” value was 38% and the Z score was -6.17. With CCn1ccc2cc(CN(C)CCN3CCCCC3=O)ccc21 the “% Inhibition” value was 4% and the Z score was -0.55. With O=C(Nc1ccc(OCc2nnc(-c3ccccc3)o2)cc1)c1ccoc1 the “% Inhibition” value was -2% and the Z score was 0.24. In the case of CN(C)c1ccc(CCc2nc(C3CC3)nn2-c2ccncc2)cc1, the “% Inhibition” value is reported as -4% and the Z score is reported as 0.45. In the case of c1ccc2c(c1)ncn2CC1CCN(Cc2cn3ccccc3n2)CC1, the “% Inhibition” value is reported as -5% and the Z score is reported as 0.6. O=C(NCc1nccnc1-c1ccoc1)c1cscn1 was tested, and the “% Inhibition” value was 16% and the Z score was -1.97. COCCn1ccnc1[C@H]1CC(=O)Nc2nn3c(C)cc(C)nc3c21 was tested, and the “% Inhibition” value was -3% and the Z score was 0.44. In the case of COCc1noc(Cn2ncc(N3CCc4ccccc4C3)cc2=O)n1, the “% Inhibition” value is reported as -3% and the Z score is reported as 0.45. In the case of Cc1nnc(-c2ccc3ccn(CC(=O)NC4CCCCCC4)c3c2)o1, the “% Inhibition” value is reported as 1% and the Z score is reported as -0.11. In the case of O=C([C@H]1CCCN1S(=O)(=O)c1ccccc1)N1CCCc2occc2C1, the “% Inhibition” value is reported as -8% and the Z score is reported as 1.42. CN(C(=O)C1(C#N)CCCCC1)[C@H]1CCN(CC(F)(F)F)C1=O was tested, and the “% Inhibition” value was -7% and the Z score was 1.01. For COCc1nc2n(n1)C[C@@H](NCc1cccc3[nH]ccc13)CC2, the “% Inhibition” value was 3% and the Z score was -0.4. With Cc1cncc(NC(=O)C[C@H](O)C(Cl)(Cl)Cl)c1 the “% Inhibition” value was -8% and the Z score was 1.01. For COc1ccccc1[C@@H]1CC(c2ccc(C)cc2)=NN1C(=O)CN(C)C1CCCCC1, the “% Inhibition” value was -2% and the Z score was 0.27. Cc1ccc(C(=O)N2CC(=O)c3ccccc3S2(=O)=O)cc1 was tested, and the “% Inhibition” value was -43% and the Z score was 5. With CC(=O)N1CC2(CCN(C(=O)c3cc(C)nc4c3cnn4C)CC2)[C@H]2COC[C@H]21 the “% Inhibition” value was -1% and the Z score was 0.13. CN1CCN(C(=O)c2ccc[nH]2)C[C@@]12CCC(=O)N(CC1CC1)CC2 was tested, and the “% Inhibition” value was -8% and the Z score was 1.51. With COc1ccc(Cc2c3cc(OC)c(OC)cc3cc[n+]2CC(=O)c2ccccc2)cc1OC the “% Inhibition” value was -8% and the Z score was 0.67. With O=C(CCNc1ccc(C(=O)N2CCCCC2)cc1)c1ccc2c(c1)OCO2 the “% Inhibition” value was -18% and the Z score was 1.79. For CCS(=O)(=O)N1CCC[C@H](C(=O)NC(C)(C)Cc2ccccc2)C1, the “% Inhibition” value was 2% and the Z score was -0.22. Cc1ccc(-c2n[nH]cc2-c2nc3cc(C#N)ccc3[nH]2)cc1 was tested, and the “% Inhibition” value was 19% and the Z score was -2.42. CC[C@H](C)NC(=O)c1cn(-c2cccc(C)n2)cn1 was tested, and the “% Inhibition” value was 37% and the Z score was -1.31. With O=C(O)[C@H](Cc1c[nH]c2ccccc12)NC(=O)N1CCC(F)(F)CC1 the “% Inhibition” value was 3% and the Z score was -0.39. With O=C(N[C@@H]1C[C@H]2CC[C@@H]1O2)[C@H]1CC[C@@H](c2ccccc2)O1 the “% Inhibition” value was -43% and the Z score was 5.04. CCOC(=O)[C@H]1CCCN(Cc2nc3nc(C)cc(N4CCCC4)n3n2)C1 was tested, and the “% Inhibition” value was -17% and the Z score was 2.19. With COCC1(C(=O)N(C)Cc2nonc2C)CCC1 the “% Inhibition” value was 1% and the Z score was -0.1. In the case of Nc1ncccc1CN1CCC[C@H](Cn2cc(C3(O)CCCC3)nn2)C1, the “% Inhibition” value is reported as -9% and the Z score is reported as 1.12. COc1cc2c(cc1CN(C)CCn1ccnc1C)OCCCO2 was tested, and the “% Inhibition” value was -3% and the Z score was 0.55. For NC(=O)C1(NC(=O)c2cccc(-c3ccc(CO)cc3CO)c2)CCCC1, the “% Inhibition” value was -2% and the Z score was 0.27. For Cc1cn2c(n1)CC[C@H](NS(=O)(=O)c1ccc(OC(C)C)cc1)C2, the “% Inhibition” value was -1% and the Z score was 0.17. With COc1ccc(NC(=O)N(C)CC(F)(F)F)c(Br)c1 the “% Inhibition” value was -6% and the Z score was 0.62. For CNC(=O)N(O)[C@H]1N(C)C(=O)N(C2CCCCC2)C1(C)C, the “% Inhibition” value was -1% and the Z score was 0.23. With CC1CC(C)CN(S(=O)(=O)c2ccc3c(c2)N(CC(=O)N2CCOCC2)C(=O)CO3)C1 (stereo unspecified) the “% Inhibition” value was -1% and the Z score was 0.11. For CCc1ccc(CNC(=O)c2snc(-c3ccncc3)c2N)cc1, the “% Inhibition” value was -12% and the Z score was 1.17. For Cc1ccc(NC(=O)Cn2cnc(-c3noc(-c4cccnc4)n3)c2)cc1C, the “% Inhibition” value was -5% and the Z score was 0.64. With CC(C)N(C[C@H]1CCC(=O)N1)C(=O)c1cccc(-c2cn[nH]c2)c1 the “% Inhibition” value was -9% and the Z score was 1.14. With Cc1nn(-c2nncc(-c3ccc(F)cc3)n2)c2c1[C@@H](c1cccc(Cl)c1)CC(=O)N2 the “% Inhibition” value was 11% and the Z score was -2.1. For O=S(=O)(c1c(F)cccc1Cl)N1CCC(n2ccnn2)CC1, the “% Inhibition” value was -7% and the Z score was 0.72. With CCCCCc1nc(CN2CCOCC2)n(-c2ccc(C(=O)O)cc2)n1 the “% Inhibition” value was -6% and the Z score was 1.13. In the case of Cc1nc(CNc2ccc(S(=O)(=O)CCO)cc2)cs1, the “% Inhibition” value is reported as -22% and the Z score is reported as 4.06. In the case of CCN(CC)c1nc(NCc2ccc(Cl)cc2)c2cnn(C)c2n1, the “% Inhibition” value is reported as 12% and the Z score is reported as -2.31. For O=C(N[C@@H](C(=O)O)c1ccc(F)cc1F)c1cn(-c2ccc(Br)cc2)cn1, the “% Inhibition” value was -21% and the Z score was 2.11. For COc1ccc(C(=O)C2CCN(S(=O)(=O)CCC(C)(C)C)CC2)cc1, the “% Inhibition” value was -15% and the Z score was 2.32. For COc1ccc(CNc2c(CO)cnc3c2cnn3C)cc1, the “% Inhibition” value was -2% and the Z score was 0.24. For CC(=O)NC[C@@H]1CN(C(=O)Cc2c[nH]c3cc(C)ccc23)C[C@H]1c1cncn1C, the “% Inhibition” value was -13% and the Z score was 2.11. With N#Cc1ccnc(NCCN2CCCOCC2)c1 the “% Inhibition” value was -15% and the Z score was 3.05.
